The list shows a part of the results. At the low end of the ranking, values are background and their order means little.

In article PMC10668032 one finds binding signal data, which are given here for 172 sequences.

This test addresses SIX1 homeodomain (reference allele) (UniProt Q15475). In words: universal protein binding microarray. Particulars: Universal all-10-mer PBM (8x60K, AMADID 030236), 300 nM GST-tagged protein, Alexa Fluor 488 anti-GST; buffer, salt, pH and temperature not stated; high values mean tight binding; most listed sequences are background and not binding sites; double strand, one strand shown.
With ATCAGGTA, the binding signal came to 0.293 E-score.

As to AATTCCCT, the binding signal was -0.152 E-score. Consider ATTTTGTG, for which the binding signal worked out at 0.0391 E-score.

Take GATCGGGA: the binding signal came to 0.314 E-score. Regarding CCGGGCCC, the binding signal is -0.156 E-score. The figure for ACATCTCT is -0.0709 E-score; for AACGTGGG it is -0.236 E-score; for CAACAGTA it is -0.116 E-score.

In the case of AACGAACA, the binding signal amounted to 0.0688 E-score. For ATTATATG, the binding signal was determined as 0.182 E-score. Consider ATAACGTG, for which the binding signal was 0.0774 E-score. The result for CTTCGCCA reads -0.199 E-score; that for TGCTAACA, -0.073 E-score.

TACGTGCA: the binding signal was -0.0998 E-score.

Take ATACCAAA: the binding signal is 0.317 E-score. In the case of AATGAATG, the binding signal is -0.0801 E-score. Consider GGGACCAC, for which the binding signal was -0.00475 E-score. Turning to CCCCGTGA, the binding signal is 0.0685 E-score.

As to ATGTGCTG, the binding signal is -0.174 E-score. Consider AGTTGTTG, for which the binding signal is -0.318 E-score.

Consider CCCACACA, for which the binding signal is -0.00729 E-score.

Take TAGGCGAA: the binding signal is 0.164 E-score. On to AATGGAGA, for which the binding signal was 0.05 E-score. As to CAAAGATC, the binding signal was 0.209 E-score. The figure for ACGTATGA is 0.097 E-score; for TAAACCCA it is 0.161 E-score; for CACCCTTC it is 0.242 E-score. The figure for ACCTCGCG is 0.0472 E-score; for ATAAGCAA it is -0.0383 E-score; for GTCCTTCA it is -0.0662 E-score. The figure for CTAAGGAA is -0.285 E-score; for ACTGCCTA it is -0.138 E-score.

Take TCCTGCCA: the binding signal is -0.156 E-score. The figure for CGCGGGCC is -0.272 E-score; for CTGATTCA it is -0.0782 E-score; for AATCCTAT it is 0.176 E-score. On to AGGCAGAA, for which the binding signal was -0.149 E-score.

For the sequence ACCGTGCT, the binding signal was -0.0817 E-score. Turning to GCGCGGCC, the binding signal is -0.319 E-score. The result for GAGGTGTA reads 0.233 E-score; that for GGTGTGAC, 0.134 E-score; that for ACAGAGCC, -0.234 E-score.

On to GAACCACA, for which the binding signal was -0.122 E-score. For CACCGCAA, the binding signal amounted to 0.0376 E-score. CCATCTGA: the binding signal amounted to 0.259 E-score. In the case of CCGCAAGC, the binding signal was -0.283 E-score.

Consider AGGCAACG, for which the binding signal is -0.0413 E-score. For the sequence GTTTTCCA, the binding signal was -0.17 E-score. On to GAACATCA, for which the binding signal is -0.319 E-score. For CACTTCAC, the binding signal was -0.102 E-score. For CATGGCTA, the binding signal stood at 0.0932 E-score.

In the case of GGATAAAA, the binding signal came to 0.166 E-score. As for CGATCCGA, the binding signal was 0.396 E-score. For GTCGAGGA, the binding signal is -0.0201 E-score.

On to ATGAGGTC, for which the binding signal was -0.101 E-score. In the case of CATCCCAC, the binding signal turned out to be 0.0433 E-score. For CGGGGATA, the binding signal amounted to 0.413 E-score. Regarding GGCCCAAA, the binding signal is -0.176 E-score.

Turning to CCTCACTC, the binding signal was -0.053 E-score.

For CACAGTAC, the binding signal was -0.0473 E-score. As for AGTTAGAG, the binding signal is -0.0581 E-score. The result for AAGCCCGC reads -0.0111 E-score; that for GGGTCCAC, 0.0781 E-score. For CCATCCGA, the binding signal was 0.218 E-score. Take ACCGACAC: the binding signal amounted to 0.286 E-score. In the case of CATGGATA, the binding signal came out at 0.3 E-score. Take GGTCCAAC: the binding signal is -0.0688 E-score. With AGGACACC, the binding signal was 0.366 E-score. Consider TCCAACGA, for which the binding signal was -0.123 E-score. As for CAGAACTA, the binding signal is -0.0307 E-score.

For ACCCCTTC, the binding signal amounted to 0.131 E-score. The result for GGTCCCAC reads -0.126 E-score.

For the sequence CTGCCCTA, the binding signal turned out to be 0.02 E-score. The figure for CCCCAAGC is 0.14 E-score; for AAGGGCGA it is -0.243 E-score. As for CAATCTCA, the binding signal came out at 0.0472 E-score.

For CCTCTCAA, the binding signal was determined as 0.0299 E-score.

In the case of AACTACAA, the binding signal was -0.0356 E-score.

Take CCCCTACA: the binding signal is 0.00857 E-score. As to TGGGTCAA, the binding signal is -0.0742 E-score. For AAAAGACA, the binding signal was -0.0208 E-score. With GACGACTA, the binding signal is -0.169 E-score. GTGAGAAA: the binding signal was -0.17 E-score. On to AACAAGAA, for which the binding signal was -0.0806 E-score. Regarding ACATAGAC, the binding signal is -0.034 E-score. CTCGGCAC: the binding signal is -0.0169 E-score.

As for GCGTCCCA, the binding signal is -0.29 E-score.

Regarding CCTCCTAC, the binding signal is -0.132 E-score. On to CACCGAAC, for which the binding signal was -0.00985 E-score. As for AGGGTATC, the binding signal is 0.491 E-score. Turning to CGTGACGC, the binding signal was -0.247 E-score. For ATGAGCGG, the binding signal was -0.187 E-score. For CATGGGGG, the binding signal came to 0.0131 E-score. Turning to GGCCTAAC, the binding signal is -0.182 E-score. The result for AAGGCTCA reads 0.117 E-score; that for CACCAGAG, -0.0793 E-score. As for CTATCACC, the binding signal is 0.35 E-score. For the sequence GAAGAAGC, the binding signal is -0.258 E-score. As to ACTGTCGA, the binding signal was -0.0755 E-score.

With CCTATACC, the binding signal is 0.311 E-score. The figure for ACAATGCT is -0.206 E-score; for ATTTAGGC it is -0.277 E-score; for GCACTCGC it is -0.163 E-score. Take AGTTGAAC: the binding signal is -0.0449 E-score.

Consider ACGGGTCT, for which the binding signal was -0.056 E-score.

As for AACCTAGA, the binding signal is 0.0334 E-score. The figure for CGAAATGA is 0.054 E-score; for CCTTAATC it is 0.142 E-score.

As for CTAGAGAA, the binding signal is 0.13 E-score. In the case of TGCTGCCA, the binding signal is -0.157 E-score. With GGGATCTA, the binding signal was 0.272 E-score. Take CGTCGCAC: the binding signal is -0.108 E-score.

Turning to AATGTACA, the binding signal was -0.0173 E-score. As for ATACGCAA, the binding signal was 0.204 E-score. Regarding CCTGTCCC, the binding signal is -0.119 E-score.

Turning to AAGCGAAG, the binding signal was -0.13 E-score. Take GCGTGACA: the binding signal was -0.0699 E-score. With CTTCGACC, the binding signal was -0.0657 E-score.

On to CATCTGGC, for which the binding signal was found to be 0.0814 E-score. Regarding ACACTCAG, the binding signal was 0.0704 E-score. Consider AATGAGTG, for which the binding signal was -0.108 E-score. Regarding AAAATGAT, the binding signal turned out to be 0.187 E-score. Consider GACACCAA, for which the binding signal stood at 0.364 E-score.

Regarding ATCATGAG, the binding signal turned out to be 0.23 E-score. GGCTCGAA: the binding signal amounted to 0.0525 E-score.

As for CAATGTCG, the binding signal was -0.162 E-score. With CCTTCGCC, the binding signal is -0.0012 E-score.

As to ACTTGAGC, the binding signal is -0.187 E-score. CCTCGTAG: the binding signal was -0.0794 E-score.

As for CACGGTTC, the binding signal is -0.257 E-score. For GCCCGTTA, the binding signal is -0.167 E-score. The result for CAATAGTC reads -0.222 E-score; that for ATGGTGGA, 0.0594 E-score; that for CTCCGCGC, -0.0249 E-score. As to AGAGGCCC, the binding signal is -0.201 E-score. On to GGTCGAAC, for which the binding signal was 0.00664 E-score.

Turning to CCTTGGTA, the binding signal amounted to 0.0895 E-score.

Take CAACACGA: the binding signal was found to be 0.015 E-score. As for TGGCCGAA, the binding signal is -0.191 E-score.

On to AGTTCGGC, for which the binding signal is -0.246 E-score. The figure for CCCATCTC is 0.292 E-score; for CCAAGGCG it is -0.146 E-score. CCGGCGGA: the binding signal turned out to be 0.24 E-score.

In the case of TCAACAAA, the binding signal came to 0.045 E-score.

Consider AAGTGTAT, for which the binding signal stood at 0.114 E-score. For the sequence CTAGCGAG, the binding signal was 0.0372 E-score.

As for CCTTTAGA, the binding signal is -0.042 E-score. CGGTGAGC: the binding signal was -0.0912 E-score. Consider ACCGTGAG, for which the binding signal stood at 0.0515 E-score. For CACCTCAC, the binding signal was -0.0105 E-score. The figure for AGTTTGGG is -0.0848 E-score; for CGCCGACA it is 0.0717 E-score.

With TCCGGACA, the binding signal came out at 0.105 E-score. Consider GGTCCCGA, for which the binding signal was -0.287 E-score. Regarding AAAAAAGA, the binding signal was -0.165 E-score. For CCCGGAAC, the binding signal was -0.118 E-score.

On to ATTTGTGG, for which the binding signal was -0.15 E-score. With GCTACCCA, the binding signal was -0.118 E-score.

On to AACATCCG, for which the binding signal was -0.0841 E-score. In the case of ATACGTAA, the binding signal turned out to be 0.132 E-score. For the sequence AACACTAT, the binding signal amounted to 0.0446 E-score. On to ACTCGACA, for which the binding signal was -0.128 E-score.

For the sequence CCAACTAA, the binding signal was -0.0194 E-score. Turning to CACGTGCG, the binding signal is -0.306 E-score. As to AATCATCA, the binding signal is -0.154 E-score.

Take GTATTTCA: the binding signal is -0.0287 E-score.

CTCCCGCA: the binding signal is 0.0286 E-score. For CCCTCTTA, the binding signal is -0.0773 E-score. In the case of GTACCGTA, the binding signal was 0.0551 E-score.

For CAAGCTGG, the binding signal is -0.042 E-score. For CGTCCCAC, the binding signal is -0.188 E-score.

For the sequence AAATACGC, the binding signal was found to be 0.0183 E-score.
